# Some of the results follow.
# Molecular target: T1, OsWOX13 (Oryza sativa, UniProt Q5QMM3 1-267)
# T1 sequence: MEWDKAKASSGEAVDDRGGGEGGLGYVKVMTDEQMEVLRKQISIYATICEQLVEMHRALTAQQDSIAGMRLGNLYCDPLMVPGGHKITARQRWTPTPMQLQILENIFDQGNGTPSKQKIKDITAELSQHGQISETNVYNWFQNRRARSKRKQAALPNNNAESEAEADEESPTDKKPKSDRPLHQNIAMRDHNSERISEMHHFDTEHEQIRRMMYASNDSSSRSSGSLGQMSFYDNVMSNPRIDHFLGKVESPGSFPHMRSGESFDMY
# Test: protein-binding microarray (RPBM); PBS, 2% BSA, 51.3 ng/ul salmon testes DNA, 50 uM zinc acetate, 200 nM TF, 25 C, 1 h; high values mean tight binding
# Details: protein: recombinant; tags: N-terminal polyhistidine and DsRed monomer fusion (pET32a); label: CyDye5-dUTP incorporated in the synthesized complementary strand; 3' TTTTT single-stranded linker to array surface; dsDNA, one strand shown
# Summary of the method: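 Using Ni–NTA, transcription factors fused N-terminally to polyhistidine and DsRed were purified after expression in E. coli BL21-CodonPlus. These were incubated at 200 nM with a blocked, double-stranded custom Agilent array for 1 h at 25 °C in a buffer containing 50 µM zinc acetate, and the array was washed. The binding signal is per-feature fluorescence intensity (arbitrary units) on an Axon 4000B scanner.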
row,Sequence,binding signal
1,ATCATTAATTCATTTATTTAATATACCCTACATCTAAATCCGGAGTCACCTAGTGCAG,3780 fluorescence intensity (a.u.)
2,CCAAACTTCTAATTTTAGCGTGAACTACAGAACTAGACACCGGAGTCACCTAGTGCAG,3600 fluorescence intensity (a.u.)
3,CAAATAATTATTATACTTTGTCATGTCATATAAACTATATCGGAGTCACCTAGTGCAG,17900 fluorescence intensity (a.u.)
4,AAGTAATTTTAGAGATGCATTTCCTTCGTACCTTTCATCACGGAGTCACCTAGTGCAG,3690 fluorescence intensity (a.u.)
5,ACGTGATGTGATTGTGTTATAGCTTCTTTAATTAAAACAACGGAGTCACCTAGTGCAG,15700 fluorescence intensity (a.u.)
6,TTTATGATTATTTAATCAATGTCAAACTTGTTCTGTGCATCGGAGTCACCTAGTGCAG,49800 fluorescence intensity (a.u.)
7,TGAGGAGCAATTAATGAGTTTGATGGACAGAGATAATAGCCGGAGTCACCTAGTGCAG,9490 fluorescence intensity (a.u.)
8,AATAATTTCAAAATTTTATGAATAAGACGAGTGGTCAAACCGGAGTCACCTAGTGCAG,4550 fluorescence intensity (a.u.)
9,GATAGATAGATAGATAGATGTAGGAGTAAATATCATACAACGGAGTCACCTAGTGCAG,17700 fluorescence intensity (a.u.)
10,CTCCTTATGTCAACCTAATTTATTGCTAGTACAAATTGCTCGGAGTCACCTAGTGCAG,5130 fluorescence intensity (a.u.)
11,GCTTACAATTAATGATTACCTTTTCATAAAGATTATTATTCGGAGTCACCTAGTGCAG,12400 fluorescence intensity (a.u.)
12,GTTGGTTCGATTTAATTGCAGTTACCACTTTGAGAACACTCGGAGTCACCTAGTGCAG,5570 fluorescence intensity (a.u.)
13,AAGATAGATCAATATGTAATGTATCAATCCACAAACATGCCGGAGTCACCTAGTGCAG,6630 fluorescence intensity (a.u.)
14,GGTTATATTTATCTTCATGATTGTCGCGCTGCAGTAGAAACGGAGTCACCTAGTGCAG,10200 fluorescence intensity (a.u.)
15,TGGTGATTTTGTGTCTGTATCATCAAAATTTGGGTATCTTCGGAGTCACCTAGTGCAG,10400 fluorescence intensity (a.u.)
16,CAAAATCATTGGAGGGAAATGGCCAAGCTGTGCGGTCAGCCGGAGTCACCTAGTGCAG,3220 fluorescence intensity (a.u.)
17,CATTCTAATCATACAAATTTCATCTAGGAAACTATCCCATCGGAGTCACCTAGTGCAG,7070 fluorescence intensity (a.u.)
18,GCGATGACACAATCAAACAAGTTTGAGAACCTGAACGGTCCGGAGTCACCTAGTGCAG,7080 fluorescence intensity (a.u.)
19,CAAGATTTATGATGATAGCCTTACTGGAGAGGAGCATCATCGGAGTCACCTAGTGCAG,14400 fluorescence intensity (a.u.)
20,TCTTATAAAACAAATCATTGATCTAATAGTGCTAACAACACGGAGTCACCTAGTGCAG,4820 fluorescence intensity (a.u.)
21,TTTTGTGATAAATTGTGTAATATACATGTAGTTTTGTGAACGGAGTCACCTAGTGCAG,4530 fluorescence intensity (a.u.)

row,Sequence,binding signal
1,GCTGATGGACTGCCGCTACCCTCTCTTTAGTCCCGGATTGCGGAGTCACCTAGTGCAG,33300 fluorescence intensity (a.u.)
2,AGTAATTGGAGAGCTCCTCTTACTGTTTCCTACAGTGCGTCGGAGTCACCTAGTGCAG,34700 fluorescence intensity (a.u.)
3,TCGTTCTAATTTAACCAAACTTTTAATTTTGGTGTGAACCCGGAGTCACCTAGTGCAG,12800 fluorescence intensity (a.u.)
4,TATCTCGGAGTTGATTTGATGATTCTTACAGTTCATTGAACGGAGTCACCTAGTGCAG,3550 fluorescence intensity (a.u.)
5,TATAATTATTAATAATTAATTAATTATATATTAATTATTTCGGAGTCACCTAGTGCAG,26700 fluorescence intensity (a.u.)
6,TGTATTAGCATAATTAATTGTTCTGGCATTTTGTCGCTGTCGGAGTCACCTAGTGCAG,9730 fluorescence intensity (a.u.)
7,AGCTGAATTGACTAGAGGAAGATTCAGCTAATGTATAACACGGAGTCACCTAGTGCAG,3240 fluorescence intensity (a.u.)
8,ACTGATTCCGTTTTACGTGACTATGGTGTGGACTCGAATACGGAGTCACCTAGTGCAG,3300 fluorescence intensity (a.u.)
9,ATGCTGCCATGATTGGCTTATCATTTGATGTAATAGTCCCCGGAGTCACCTAGTGCAG,25700 fluorescence intensity (a.u.)
10,TATGGCTAATTATGGACTAATTAGGCTCAAAAGATTCGTCCGGAGTCACCTAGTGCAG,38000 fluorescence intensity (a.u.)
11,AAAATCATGATAGAAATTATATATTTTCAAGTTGTTTTGCCGGAGTCACCTAGTGCAG,18200 fluorescence intensity (a.u.)
12,TTGTTATCTGATTTAGACGTACATACTCACGTTTAGGCATCGGAGTCACCTAGTGCAG,3240 fluorescence intensity (a.u.)
13,TAAAATAAATCAAATTAATACAAGTGAGATATCTTAGTAACGGAGTCACCTAGTGCAG,6480 fluorescence intensity (a.u.)
14,ACAAAATTAAGTAACATATGTAAATTTTGCATTGAATAATCGGAGTCACCTAGTGCAG,3330 fluorescence intensity (a.u.)
15,TTGTTAATCATATAGTAATAACCTATATGCTACGATTCTGCGGAGTCACCTAGTGCAG,5660 fluorescence intensity (a.u.)
16,TTCTCTAATTAAATTAAACTATGAGTACTTAAAAGCCCTGCGGAGTCACCTAGTGCAG,24700 fluorescence intensity (a.u.)
17,CTGAACTGGTTCGTTTCTAATTGACTGTGTTTGTTTGTTTCGGAGTCACCTAGTGCAG,4720 fluorescence intensity (a.u.)
18,TCATTGAAATAATTTGAGGATGGAAATGAAACAGCAGCATCGGAGTCACCTAGTGCAG,3260 fluorescence intensity (a.u.)
19,GAACAATCAGACAATTTTATCTGGCTCAAGCACCATCTCTCGGAGTCACCTAGTGCAG,3260 fluorescence intensity (a.u.)
20,AGATTAGATTGGTTTAGCGCCAATAATTTAACCTAGTTAGCGGAGTCACCTAGTGCAG,27700 fluorescence intensity (a.u.)
21,CTGGATGATTGGATCAGACGCTCACAATTAAGTTAACCCACGGAGTCACCTAGTGCAG,41900 fluorescence intensity (a.u.)

# Source: article PMC7819943, “Rice protein-binding microarrays: a tool to detect cis-acting elements near promoter regions in rice”
